Laboratory results: the RNAGym collection of RNA variant scans (doi:10.1073/pnas.2313332121)
Variants at the background level are over-represented here.

B1: TPR 5TU (parent)
chain: GGAUCUUCUCGAUCUAACAAAAAAGACAAAUCUGCCACAAAGCUUGAGAGCAUCUUCGGAUGCAGAGGCGGCAGCCUUCGGUGGCGCGAUAGCGCCAACGUUCUCAACUAUGACACGCAAAACGCGUGCUCCGUUGAAUGGAGUUUAUCAUG

Variants of: B1
Test: polymerase ribozyme fitness, log enrichment relative to wild type (log ratio); higher = more active; in vitro selection for triplet polymerase activity
In short: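 The heterodimeric triplet polymerase ribozyme's subunits were each mutagenized into PCR-built libraries and transcribed. Every library was selected once, in triplicate, by annealing with a biotinylated primer, the partner subunit and triplets, incubating frozen at −7 °C, gel-excising extended constructs, capturing on streptavidin beads and running RT-PCR. Input and output libraries were Illumina-sequenced, with genotypes kept only at ≥10 input reads and ≥1 read per output. Fitness, from inverse-variance-weighted replicate averages, is the base-2 logarithm of genotype enrichment over wild-type enrichment.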

| Variant | polymerase ribozyme fitness (log ratio) |
| --- | --- |
| A30G C95G U134A | ≤ -4.2 |
| A30U U55G C63U A110U G126U | -4.07 |
| A30U U77A C85U G133U | ≤ -4.2 |
| A30G C75U U77A G88C C123G | ≤ -4.2 |
| A30U G88A | ≤ -4.2 |
| A30U A97C C108U A113U C129G | ≤ -4.2 |
| A30U C51G G81C C85A C93A A110U G117A G133A | ≤ -4.2 |
| A30G C76A C95A | ≤ -4.2 |
| A30U U33C A138G | ≤ -4.2 |
| A30U C36A G58C A121C | ≤ -4.2 |
| A30C U55A U82G C99G A110C | ≤ -4.2 |
| A30C A91C A98U A119U | ≤ -4.2 |
| A30U G92A C99G G117A | ≤ -4.2 |
| A30C G74A A91U C108G C114U U148A A150U | ≤ -4.2 |
| A30U U45G C93U C103G C118G | ≤ -4.2 |
| U31A A60G A91U C131G | ≤ -4.2 |
| A30C A52C G83U G84C U135A G141C | ≤ -4.2 |
| A30U C54A A97G U101G A142G | ≤ -4.2 |
| A30C G42A C85A C116A G140A | ≤ -4.2 |
| A30U G42A C43U A52G | ≤ -4.2 |
| A30G A39U A52G U55G | -4.08 |
| A30U G74A C93G C103A A106G A113U | ≤ -4.2 |
| A30U A60G U61C G84C A107G A122U | ≤ -4.2 |
| U31A A73C C87U A122G G143U | ≤ -4.2 |

| Variant | polymerase ribozyme fitness (log ratio) |
| --- | --- |
| A30G C57A G58U C76A A107U G143C | ≤ -4.2 |
| A30U C93A A121C A138G G141A G152U | ≤ -4.2 |
| A30G U127C A147G | ≤ -4.2 |
| A30U U56A G58A U101G C103G U130G C132A U135C | ≤ -4.2 |
| A30U G94U | ≤ -4.2 |
| A30U C38G G50C C87G G117A | ≤ -4.2 |
| A30C C95G A119U C132U | ≤ -4.2 |
| A30U C76A G88A U90C A98U C132U | ≤ -4.2 |
| A30G U45G G46C C76U C87U U135A | ≤ -4.2 |
| A30U A115C | ≤ -4.2 |
| A30G C95A U104A C118U C131A A138U G141A | ≤ -4.2 |
| A30C C87G C99G C132A G140U | ≤ -4.2 |
| A30U A91U G94A | ≤ -4.2 |
| A30C C85U | -4.09 |
| A30G C38A U77A G84A G86A A113C A137U | ≤ -4.2 |
| A30U U56G U82C G84U C95U | ≤ -4.2 |
| A30G C75G C87G | ≤ -4.2 |
| A30U C43U G58A U77G C93G | ≤ -4.2 |
| A30U C43A C54G C85A C125U G143A | ≤ -4.2 |
| A30U C87G | ≤ -4.2 |
| A30G G68U A97G C103A U109C G133U | ≤ -4.2 |
| A30G C51A U55C U82A G94C C103G U109A C116A | ≤ -4.2 |
| A30U G68A A91G C99G C108U | ≤ -4.2 |
| A30C C57U G59C G80A | ≤ -4.2 |

| Variant | polymerase ribozyme fitness (log ratio) |
| --- | --- |
| A30U U45A G50C C79G G83C G126C | ≤ -4.2 |
| U31A A97U | -0.316 |
| A30U C51U A73U C95A C118A U139C | ≤ -4.2 |
| A30C G80A C87G A115G U145G | ≤ -4.2 |
| A30C U55G C76U C85A C125G | ≤ -4.2 |
| A30G C87U C103U | ≤ -4.2 |
| A30C G74U G124U | ≤ -4.2 |
| A30G C35G G59U A113C C131A | ≤ -4.2 |
| A30G C32G U56A C57G G86U A142G | ≤ -4.2 |
| A30U A52U C79G G94U | ≤ -4.2 |
| A30G C54U C76G A91C | ≤ -4.2 |
| A30C C36G U77G C116U C125U G133C | ≤ -4.2 |
| A30C C36U A121G G124C | ≤ -4.2 |
| A30G G67C C125A | ≤ -4.2 |
| A30U G34C A60G C95G A107U | ≤ -4.2 |
| A30U U55A C93A U101C C114U A138G | ≤ -4.2 |
| A30U G46C A64G C75U G117U A121C A142U | ≤ -4.2 |
| A30G C32G C51U U53A C54U C57G C87G C105A U151G | ≤ -4.2 |
| A30C G71C G141U | ≤ -4.2 |
| A29U U61A G86A C99U U109C | ≤ -4.2 |
| A30U A49C G83U G124A U151A | ≤ -4.2 |
| A30U G48C C51A C76A A107U A115C C116U G143A | ≤ -4.2 |
| A30C C75G C103G | ≤ -4.2 |
| A30G G50C C76U C103G | ≤ -4.2 |

| Variant | polymerase ribozyme fitness (log ratio) |
| --- | --- |
| A30C A89U C95A A98G A107C | ≤ -4.2 |
| A30U C51G U56A C85A C93A G126A | ≤ -4.2 |
| A30U C51U U55A | ≤ -4.2 |
| A30U A98U A107C G126A | ≤ -4.2 |
| A30G C87U C96A | ≤ -4.2 |
| A30U U90G A91U U111G | ≤ -4.2 |
| A30G U33A C51A G68C C79U G92A C129A | ≤ -4.2 |
| A30G A47G U56A G71C G117U A150U | ≤ -4.2 |
| A30U A40U A52G A60U G83A A115U C116U | ≤ -4.2 |
| A30U G59C G86C A97U A107U U109C A147C | ≤ -4.2 |
| A30U C85A C96A U101C | ≤ -4.2 |
| A30U U53G C95A U145A G152U | ≤ -4.2 |
| A30U G112A C116U A122U | ≤ -4.2 |
| A30G C95G | -3.11 |
| A30G A52G G100A C103A C114U G117A G140U | ≤ -4.2 |
| A30U C54U U77C G83A A119U U144A | ≤ -4.2 |
| A30U C54U C85A G128C G140U G141A | ≤ -4.2 |
| A30U G50C A52C A64G C95U | ≤ -4.2 |
| A30G U33G U82C C103A U144A | ≤ -4.2 |
| A30U C32G C35A C63U G68C G86A A107U | ≤ -4.2 |
| A30C A39U A60G | ≤ -4.2 |
| A30U A73U G94U U144A G152U | ≤ -4.2 |
| U31A A41C A66G | ≤ -4.2 |
| A30G U90C | ≤ -4.2 |

| Variant | polymerase ribozyme fitness (log ratio) |
| --- | --- |
| A30U A37U G65U G68A A73C C87G G94A A97G A98C | ≤ -4.2 |
| A30U G92U | -3.52 |
| A30G C32U G92A | ≤ -4.2 |
| A30C A37U A60U G88U A122U C125G | ≤ -4.2 |
| A30C G42U G88A G94A A150U | ≤ -4.2 |
| A30G A49G U102G U135C | ≤ -4.2 |
| A30U C35U G84A C118U C132A | ≤ -4.2 |
| A30C G34U U55A C93A C96A A115U G124U U135A G143C | ≤ -4.2 |
| A30C G48C C51U G67U U82G G83U A89U U148A C149U | ≤ -4.2 |
| A30C A52U A60G A64U A142G U146A | ≤ -4.2 |
| A30C U45A A47G A49G C95U C99G U144C | ≤ -4.2 |
| A30G A52U C105A A107U G141U | ≤ -4.2 |
| A30G A39C G50U C95G A107C | ≤ -4.2 |
| A29U U56A C125G | ≤ -4.2 |
| A29U U82A C87A A107U A115U A122U G124C U151A | ≤ -4.2 |
| A30U A73U G74U C76G U90G U139C | ≤ -4.2 |
| A30G C54G G74U | ≤ -4.2 |
| A30G C54G G68A C95G A121C | ≤ -4.2 |
| A30G G42A U55G G65A C76G C87G A106U G143A A147C | ≤ -4.2 |
| A30G U44G G58A C69A G83C A147U | ≤ -4.2 |
| A30C C54U C96G G141A | ≤ -4.2 |
| A30G A41U C69G C76U G94U U102G U130C | ≤ -4.2 |
| A30U C76G G136C | ≤ -4.2 |
| A30U G48C | ≤ -4.2 |

| Variant | polymerase ribozyme fitness (log ratio) |
| --- | --- |
| A30G A52G G58C A91U G92C C93A U145A | ≤ -4.2 |
| U31A C57A C87U A97C G117A A119U | 1.02 |
| U31A A39G A40U A41C G48A C95U C131G U148A | ≤ -4.2 |
| A30U C87G U101G U146A C149G | ≤ -4.2 |
| A30G G58C C85U A89U C125U U144C | ≤ -4.2 |
| A30U A47C U56A C108G | ≤ -4.2 |
| A30C C105G | ≤ -4.2 |
| A30C G80U C87U | ≤ -4.2 |
| A30U G65U A73U A113U U146C | ≤ -4.2 |
| A29U U53G A91U U127G | ≤ -4.2 |
| A30C A49U C54A G58C G59A G143C | ≤ -4.2 |
| A30G G46C G50U C57U C118G | ≤ -4.2 |
| U31A C32G G88C A113U C116U U148A | ≤ -4.2 |
| A30U C38U C95A C123U U148A | ≤ -4.2 |
| A30U G42C U53A C76U C87A A98G | ≤ -4.2 |
| A30U U55A C105G | ≤ -4.2 |
| A30U A41G C57G U61A A97G U101G G152U | ≤ -4.2 |
| A30C G59A | ≤ -4.2 |
| A30G C51U G68C A121G U127C | ≤ -4.2 |
| A30U A52C U90C C93U C95U C96U A106G | ≤ -4.2 |
| A30C G88C U127A G143A | ≤ -4.2 |
| A30G A47C G48A | ≤ -4.2 |
| A30U C54U C85U | -3.87 |
| A30C G92A U104A A106C C108A | ≤ -4.2 |

| Variant | polymerase ribozyme fitness (log ratio) |
| --- | --- |
| A30C C35U G59A G88U G117A | ≤ -4.2 |
| A30G G42C C43A A64G G68A A91U C96U A98U G133U G140A | ≤ -4.2 |
| A30U A60G G88A C95U A121G U134A | ≤ -4.2 |
| A30G G92A C118A A120U C129U | ≤ -4.2 |
| A30C U31A A40G C57U C87G A107U G126A | ≤ -4.2 |
| A30U U33A A64G A66U G83C G117U | ≤ -4.2 |
| A30U A49C C54G C96G C108A A121C | ≤ -4.2 |
| A30C A41C C43U U53A C93U C125U A137G | ≤ -4.2 |
| A30C U31G G34C C95A A147C | ≤ -4.2 |
| A30U U102G G143U | ≤ -4.2 |
| A30G U33A C93A | ≤ -4.2 |
| A30C C87A | ≤ -4.2 |
| A30G A47G G50A G59A G86C A147C | ≤ -4.2 |
| A30C C79A G88A A107G C116G A137G U144C | ≤ -4.2 |
| A30U A52U C75U A97U G143C | ≤ -4.2 |
| A30G A91C | ≤ -4.2 |
| A30G A91G | ≤ -4.2 |
| A30U G50C G68A C95U U101G U144C | ≤ -4.2 |
| A30U A52G G67U C132U | ≤ -4.2 |
| A30G G80A C95U A142U | ≤ -4.2 |
| A30G C87A A91C A110U A115U U135C | ≤ -4.2 |
| A30U A73U G88U C93G G133C | ≤ -4.2 |
| A30C G83A G88A A98U C125A A147G | ≤ -4.2 |
